# Laboratory results: PMC9911399, “Two distinct binding modes provide the RNA-binding protein RbFox with extraordinary sequence specificity”
# Positions count from the first letter of the chain named. This is one part of the list.
# T1: RBFOX1 RRM (Homo sapiens, UniProt Q9NWB1 109-208)
# T1 sequence: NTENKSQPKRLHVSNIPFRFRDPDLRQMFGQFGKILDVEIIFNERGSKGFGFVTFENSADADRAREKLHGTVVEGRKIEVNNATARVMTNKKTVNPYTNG
# B1: UUCAUUG (DNA:RNA)
# RNA: GGGAGACCGGAAUUCAGAUUGUCCUUCAUUGUUAAAUCCCGUCGUAGCCACCA
# DNA 1: CAATCTGAATTCCGGTCTCCC
# DNA 2: TGGTGGCTACGACGGGATT
# B2: AGACUGA (DNA:RNA)
# RNA: B1 RNA with U25A, U26G, C27A, A28C, U30G, G31A
# DNA 1: CAATCTGAATTCCGGTCTCCC
# DNA 2: TGGTGGCTACGACGGGATT
# B3: ACAAGAC (DNA:RNA)
# RNA: B1 RNA with U25A, U26C, C27A, U29G, U30A, G31C
# DNA 1: CAATCTGAATTCCGGTCTCCC
# DNA 2: TGGTGGCTACGACGGGATT
# B4: GCCUCGA (DNA:RNA)
# RNA: B1 RNA with U25G, U26C, A28U, U29C, U30G, G31A
# DNA 1: CAATCTGAATTCCGGTCTCCC
# DNA 2: TGGTGGCTACGACGGGATT
# B5: GUUACGG (DNA:RNA)
# RNA: B1 RNA with U25G, C27U, U29C, U30G
# DNA 1: CAATCTGAATTCCGGTCTCCC
# DNA 2: TGGTGGCTACGACGGGATT
# B6: AGCGAUU (DNA:RNA)
# RNA: B1 RNA with U25A, U26G, A28G, U29A, G31U
# DNA 1: CAATCTGAATTCCGGTCTCCC
# DNA 2: TGGTGGCTACGACGGGATT
# B7: UGUUUCU (DNA:RNA)
# RNA: B1 RNA with U26G, C27U, A28U, U30C, G31U
# DNA 1: CAATCTGAATTCCGGTCTCCC
# DNA 2: TGGTGGCTACGACGGGATT
# B8: CAGACAU (DNA:RNA)
# RNA: B1 RNA with U25C, U26A, C27G, U29C, U30A, G31U
# DNA 1: CAATCTGAATTCCGGTCTCCC
# DNA 2: TGGTGGCTACGACGGGATT
# B9: UUGUGCG (DNA:RNA)
# RNA: B1 RNA with C27G, A28U, U29G, U30C
# DNA 1: CAATCTGAATTCCGGTCTCCC
# DNA 2: TGGTGGCTACGACGGGATT
# Target: T1, RBFOX1 RRM
# Assay: EMSA; HiTS-Eq, 1 nM pool, 10 min; buffer printed only for the single-RNA assays: 10 mM Tris pH 7.5, 150 mM NaCl, 3.4 mM EDTA, 0.001% NP-40, 30 C
# Conditions: tags: His6 N-terminal (pET28a); label: 5' 32P
# Method in brief: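 These values rest on relative association constants, computed from read-count changes of each RNA species versus the control reaction and normalised to the cognate motif. Reads came from free RNA recovered by 8% native PAGE after purified RbFox RRM (wild type or mutant) at increasing concentrations was equilibrated for 10 min in 50 µL with 1 nM of a 5′-radiolabelled pool with 7 randomized nucleotides and DNA-annealed flanks.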
row,Binder,binding signal
1,B1,0.0114 KA relative to UGCAUGU
2,B2,0.0138 KA relative to UGCAUGU
3,B3,0.00266 KA relative to UGCAUGU
4,B4,0.013 KA relative to UGCAUGU
5,B5,0.00878 KA relative to UGCAUGU
6,B6,0.00915 KA relative to UGCAUGU
7,B7,0.0212 KA relative to UGCAUGU
8,B8,0.00531 KA relative to UGCAUGU
9,B9,0.0268 KA relative to UGCAUGU
